Values joined by “and” are separate entries in the source; they are usually repeats but may differ in a detail not shown here. Equal entries are not always repeated. Among all 390,000 compounds or so, about 1,400 (0.36%) were called active. Inconclusive means that the source gave no clear call. Such entries were picked first, then a sample of the others. Calls come from the whole dose curve; as a rule, active = well fitted inhibition curve with a large enough effect; inconclusive = small, poorly fitted or top-dose-only effect; inactive = no such curve, though single readings can be large or run the other way. A potency beside an inconclusive call is a rough fit, not a confirmed value.
target: Flap endonuclease 1 (Homo sapiens) (UniProt P39748); test: qHTS Assay for the Inhibitors of Human Flap endonuclease 1 (FEN1).; note: nearly all actives have a fitted effect of over 65% in size; conditions: Recombinant FEN1 flap cleavage, fluorescence, 15 min; series mostly up to 114 µM; activity change, negative = inhibition: at the top concentration
UniProt P39748, sequence (P39748 whole entry, looked up): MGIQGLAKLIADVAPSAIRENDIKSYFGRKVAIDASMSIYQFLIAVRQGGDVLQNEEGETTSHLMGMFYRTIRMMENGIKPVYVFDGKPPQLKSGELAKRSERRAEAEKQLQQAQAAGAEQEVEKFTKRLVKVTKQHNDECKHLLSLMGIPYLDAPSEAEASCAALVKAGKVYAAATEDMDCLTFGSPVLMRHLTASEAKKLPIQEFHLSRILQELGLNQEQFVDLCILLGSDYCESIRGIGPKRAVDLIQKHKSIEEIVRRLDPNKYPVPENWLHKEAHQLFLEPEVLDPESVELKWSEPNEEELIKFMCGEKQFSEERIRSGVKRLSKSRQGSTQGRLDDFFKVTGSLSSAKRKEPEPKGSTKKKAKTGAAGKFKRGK
Outline: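 Recombinant FEN1 (10 nM) was preincubated with pin-transferred compounds for 15 min at room temperature, then flap DNA substrate (50 nM final) was added. Plates were read at 0 and 15 min, and normalized concentration–response data were fitted to a four-parameter Hill equation.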
% is set by controls: 0 for no effect and ±100 for the full control effect; potency is the fitted concentration of half-maximal effect; tags give direction and shape of the fitted curve.

Row | Structure (SMILES) | activity change, negative = inhibition | Potency
1 | COc1cc2c(cc1OC)C(COc1ccc(F)cc1)N(C(=O)c1ccco1)CC2 (stereo not drawn) | inactive: -15.5% | 
2 | O=C1C(c2cc(=O)c3ccccc3[nH]2)=C(O)c2ccccc21 |  | inconclusive: 50.1 µM [inhibitor, partial curve]
3 | Cc1cccc(C(=O)NNC(=O)c2ccc(F)cc2)c1 | inactive: 6.71% | 
4 | Nn1cnnc1N/N=C/c1ccc(F)cc1 |  | inconclusive: 31.6 µM [inhibitor, single point]
5 | CCC(CO)Oc1cc(NCc2cccnc2)c2ncn(C(C)C)c2c1 (stereo not drawn) |  | inconclusive: 25.1 µM [inhibitor, partial curve, poor fit]
6 | O=C1/C(=C\c2ccccc2Cl)SC(=S)N1CCC(=O)N1CCCc2ccccc21 | inactive: 2.46% | 
7 | COc1cc(-c2cc(OC)c(O)c(OC)c2)cc(OC)c1O |  | inconclusive: 10 µM [inhibitor, partial curve, poor fit]
8 | CC(=O)NCCNc1nc2c(-c3ccccc3)nnn2c2ccccc12 |  | inconclusive: 17.8 µM [inhibitor, partial curve, poor fit]
9 | CCN1/C(=C\C=C2\C(=O)N(C)C(=S)N2C)Sc2ccccc21 | inactive: 0.217% | 
10 | CCN(CC)CCn1c2ccc(F)cc2c2nc(C)sc21 |  | inconclusive: 89.1 µM [inhibitor, partial curve, poor fit]
11 | Cc1ccc(C(=O)O)cc1N=Cc1cc(Br)cc(Br)c1O | inactive: -2.95% | 
12 | Cc1ccc(Cl)cc1NC(=O)Nc1nnc(N(C)Cc2ccccc2)s1 |  | inconclusive: 79.4 µM [inhibitor, partial curve, poor fit]
13 | CCc1ccc(NC(=O)CN(c2ccc(C)cc2)S(=O)(=O)c2cccs2)cc1 | inactive: -25.7% | 
14 | COCCCN(C(=O)c1ccccc1)c1nc(-c2ccc(OC)cc2)cs1 |  | inconclusive: 50.1 µM [inhibitor, partial curve, poor fit]
15 | O=C(O)Cn1cc(/C=C2/NC(=O)N(c3ccc(Cl)cc3)C2=O)c2ccccc21 | inactive: 15.1% | 
16 | CCn1c(COc2cccc3ccccc23)nnc1SCC(=O)OC1CCCCC1 |  | inconclusive: 70.8 µM [inhibitor, partial curve]
17 | COCCNC(=O)CSc1nc(-c2cc(OC)c(OC)c(OC)c2)[nH]c1-c1ccc(Cl)cc1 |  | inconclusive: 70.8 µM [inhibitor, single point]
18 | CCCCNc1c(-c2ccc(OC)c(SC3CCCCC3)c2)nc2cc(C)ccn12 |  | inconclusive: 56.2 µM [inhibitor, partial curve, poor fit]
19 | COc1cc(/C=C2\CC/C(=C\c3cc(OC)c(O)c(OC)c3)C2=O)cc(OC)c1O |  | active: 6.31 µM
20 | CCOCCCn1c(SCc2nc3sc(C(=O)O)c(C)c3c(=O)[nH]2)nnc1-c1ccc(Cl)cc1 | inactive: 8.93% | 
21 | CC(=O)N1CCc2nc3sc(C(=O)c4ccc(F)cc4)c(N)c3c(C(F)(F)F)c2C1 |  | inconclusive: 50.1 µM [inhibitor, partial curve, poor fit]
22 | N#CC1=C2SCC(O)(c3ccccc3)N2C(=O)CC1c1ccccc1F (stereo not drawn) |  | inconclusive: 89.1 µM [inhibitor, partial curve, poor fit]
23 | Cc1cc(C)c(S(=O)(=O)Nc2ccc3c4c(cccc24)CC3)c(C)c1 |  | inconclusive: 89.1 µM [inhibitor, partial curve, poor fit]

Row | Structure (SMILES) | activity change, negative = inhibition | Potency
24 | Cc1ccc(-n2nnnc2CNC(=O)c2cc(C(F)(F)F)cc(C(F)(F)F)c2)cc1C | inactive: -12.2% | 
25 | CCCN(CCC)CCCNC(=O)c1cc2c(-c3ccc(OC)c(OC)c3)nn(C)c2s1 |  | active: 25.1 µM and active: 28.2 µM
26 | Cc1sc(NC(=O)CSc2nc(O)cc(=O)[nH]2)nc1-c1ccccc1 |  | active: 50.1 µM
27 | COc1ccc(C2C(=O)N(C3CCCCCC3)CC(=O)N2Cc2ccc(C)cc2)cc1 (stereo not drawn) | inactive: -0.58% | 
28 | C/C(=N\NC(=O)c1cc(-c2cccc([N+](=O)[O-])c2)n[nH]1)c1ccccc1O |  | inconclusive: 63.1 µM [inhibitor, partial curve, poor fit]
29 | O=C(NCc1cccc(Br)c1)c1cnn(-c2ccc(F)cc2)c1-n1cccc1 | inactive: -0.36% | 
30 | Fc1ccccc1/C=N/n1c(COc2ccccc2)n[nH]c1=S | inactive: -5.92% | 
31 | COc1cc(/C=C(\C#N)C(=O)c2c[nH]c3ccccc23)cc(OC)c1O |  | inconclusive: 50.1 µM [inhibitor, partial curve, poor fit]
32 | O=C(CN1CCN(c2ccc(F)cc2)CC1)Nc1ccc2c(c1)OCCO2 | inactive: -4.07% | 
33 | CCOC(=O)c1sc(=S)n(-c2ccccc2)c1NC(C)=O |  | active: 79.4 µM
34 | N#CC1=C2SCN(c3ccccc3)CN2C(=O)CC1c1c(Cl)cccc1Cl (stereo not drawn) |  | active: 79.4 µM
35 | CN(C)CCCN(C(=O)c1cc2cc([N+](=O)[O-])ccc2s1)c1nc2cc3c(cc2s1)OCCO3 |  | inconclusive: 79.4 µM [inhibitor, partial curve]
36 | O=C(Nc1cccc(S(=O)(=O)N2CCCCC2)c1)c1ccc2ncsc2c1 |  | inconclusive: 35.5 µM [inhibitor, partial curve, poor fit]
37 | COc1ccc(S(=O)(=O)c2c(O)c3ccc(C(=O)NCc4ccc(F)cc4)cc3[nH]c2=O)cc1 |  | inconclusive: 22.4 µM [inhibitor, single point]
38 | CNCc1ccccc1Sc1cc(O)ccc1O |  | inconclusive: 89.1 µM [inhibitor, single point]
39 | CC(C)(C)OC(=O)N1CCC(c2nnc(SCc3cccc(Cl)c3)o2)CC1 | inactive: -11.3% | 
40 | Cc1ccc(F)c(NC(=O)/C(C#N)=C(\O)c2ccc(C(C)(C)C)cc2)c1 |  | inconclusive: 35.5 µM [inhibitor, partial curve, poor fit]
41 | COCc1nn2cc(-c3ccc(C)cc3)nc2s1 | inactive: 1.71% | 
42 | COc1cc(O)c(C(C)=O)c(CC(=O)O)c1 |  | active: 22.4 µM
43 | Cc1nc2c(C(=O)N3CCN(c4ccccn4)CC3)cnn2c(C)c1Cc1cccc(Cl)c1 | inactive: -16.1% | 
44 | Cc1ccc2[nH]c(C)c(/C=C/c3cc[n+](C)cc3)c2c1 |  | inconclusive: 44.7 µM [inhibitor, partial curve]
45 | CCN(CC)/[N+]([O-])=N/Oc1cc(O/N=[N+](\[O-])N(C)C)c([N+](=O)[O-])cc1[N+](=O)[O-] |  | inconclusive: 17.8 µM [inhibitor, partial curve, poor fit]
46 | CC(C)CCN(Cc1ccco1)C(=O)c1cc2c(s1)-c1ccccc1OC2 |  | inconclusive: 89.1 µM [inhibitor, single point]

Row | Structure (SMILES) | activity change, negative = inhibition | Potency
47 | Cc1cc(C)cc(NC(=S)Nc2ccc(Cl)c(Cl)c2)c1 | inactive: 2.14% | 
48 | Cc1ccccc1Nc1nn2c(=O)c3ccccc3nc2s1 | inactive: -1.65% | 
49 | Cc1ccc(-c2cnn(-c3ccccc3)c2N)cc1 | inactive: 9.45% | 
50 | CCN(CC(=O)Nc1c(C(=O)OC)[nH]c2ccc(C)cc12)c1ccc2c(c1)OCO2 |  | inconclusive: 89.1 µM [inhibitor, partial curve, poor fit]
51 | CCN1C(=O)/C(=C2/C=Cc3ccccc3N2CC)SC1=S |  | inconclusive: 79.4 µM [inhibitor, partial curve, poor fit]
52 | CCOC(=O)N1CCN(C2=C(NS(=O)(=O)c3ccc(NC(C)=O)cc3)C(=O)c3ccccc3C2=O)CC1 |  | inconclusive: 12.6 µM [inhibitor, partial curve, poor fit]
53 | Cc1ccc(/C=C2\SC(=S)N(C3CCS(=O)(=O)C3)C2=O)o1 (stereo not drawn) |  | inconclusive: 50.1 µM [inhibitor, full curve, poor fit]
54 | CC(C)(C)c1ccccc1NC(=O)C1=COCCO1 | inactive: -0.859% | 
55 | COC(=O)c1ccc(CN(C)S(=O)(=O)c2cccs2)cc1 | inactive: -2.53% | 
56 | CCN(CC)CCCNC(=O)c1ccc2c3n(nc2c1)-c1ccc(Cl)cc1CO3 |  | inconclusive: 44.7 µM [inhibitor, partial curve]
57 | O=C(Nc1ccccc1)C1=C[C@@H](c2csc3ccccc23)C[C@@H](OCc2ccc(CO)cc2)O1 |  | inconclusive: 89.1 µM [inhibitor, partial curve, poor fit]
58 | N#CC1=C2SCN(C3CCCCC3)CN2C(=O)CC1c1c(F)cccc1Cl (stereo not drawn) |  | inconclusive: 15.8 µM [inhibitor, partial curve]
59 | CCc1ccc(Sc2cc(C(=O)O)c3ccccc3n2)cc1 | inactive: 15.5% | 
60 | O=S(=O)(Nc1c(O)ccc2ccccc12)c1cccc2ccccc12 |  | inconclusive: 79.4 µM [inhibitor, partial curve]
61 | O=S(=O)(N1CCN(c2nc(-c3cccs3)nc3ccccc23)CC1)C(F)(F)F | inactive: -22.4% | 
62 | COc1ccc(C2=NS(=O)(=O)N(C)C(C(=O)NCc3cccs3)=C2)cc1OC |  | inconclusive: 28.2 µM [inhibitor, partial curve, poor fit]
63 | c1csc(-c2csc3nc(CN4CCOCC4)nc(NCc4ccc5c(c4)OCO5)c23)c1 |  | inconclusive: 89.1 µM [inhibitor, partial curve, poor fit]
64 | COc1ccc(C2=CC3=C(Br)C(=O)C(C)(OC(=O)C4CCCC4)C(=O)C3=CO2)cc1 (stereo not drawn) |  | inconclusive: 39.8 µM [inhibitor, partial curve]
65 | Cc1nn2c(=O)cc(COC(=O)c3ccc(NC(=O)c4cccc(Br)c4)cc3)nc2s1 | inactive: -3.44% | 
66 | COc1ccc2occ(C(=O)c3coc4ccc(O)c(CN(C)C)c34)c2c1 |  | inconclusive: 89.1 µM [inhibitor, partial curve, poor fit]
67 | COc1ccc(-c2csc(Nc3ccc(S(=O)(=O)Nc4cc(OC)nc(OC)n4)cc3)n2)cc1 |  | inconclusive: 79.4 µM [inhibitor, partial curve, poor fit]
68 | O=C(Nc1ncccn1)c1cc(-c2cccc(Br)c2)nc2ccccc12 |  | inconclusive: 89.1 µM [inhibitor, partial curve, poor fit]

Source: PubChem BioAssay AID588795 (National Center for Advancing Translational Sciences (NCATS), 2011)
